Laboratory results published in PubChem BioAssay (NCATS).
This list was built around the results that the source calls inconclusive (neither active nor inactive); the mix of calls is not that of the screen. The call rests on the fitted dose curve; in most records, active means well fitted curve in the direction sought with a large enough effect; inconclusive means small, poorly fitted or top-dose-only effect, or another doubt; inactive means no such curve, though single readings can be large; an effect the other way counts as inactive or inconclusive. Potencies of inconclusive entries are doubtful fits and often do not repeat.

Key:
[1] = P-glycoprotein substrates identified in KB-3-1 adenocarcinoma cell line, qHTS therapeutic library screen (AID 1346986);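 further: potency is for cytotoxicity meaning loss of cell viability; nearly all actives have a fitted effect of over 60% in size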
Method in brief: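 Viability by CellTiter-Glo after 72 h compound exposure at 37 degree C, 5% CO2. Cytotoxic call: curve class -1.1 to -2.4, maximum response >50%, AC50 < 10 uM, compared across KB-3-1 and P-gp-overexpressing KB-8-5-11.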

[2] = P-glycoprotein substrates identified in KB-8-5-11 adenocarcinoma cell line, qHTS therapeutic library screen (AID 1346987); conditions: activity change, negative = cytotoxicity: at 44.5 µM (top of the series); further: nearly all actives have a fitted effect of over 65% in size
Method in brief: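 In this qHTS, P-gp-rich KB-8-5-11 cells received library compounds across a concentration range. Viability was quantified by luminescence after 72 h at 37 degree C.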

[3] = Primary qHTS for inhibitors of nuclear receptor binding SET domain protein 2 (NSD2) in an isogenic RCH-ACV NSD2 p.E1099K mutant (9B) (AID 1645876); conditions: activity change, negative = viability loss: at 44.9 µM (top of the series) unless noted; further: nearly all actives have a fitted effect of over 70% in size
[4] = Primary qHTS for inhibitors of nuclear receptor binding SET domain protein 2 (NSD2) in an RCH-ACV wild type WT cells (2C) (AID 1645877); conditions: activity change, negative = cell killing: at 44.9 µM (top of the series) unless noted; further: nearly all actives have a fitted effect of over 70% in size

Measured: Potency
Potency means the concentration at half of the fitted maximal effect; tags describe the fitted curve by direction and shape.

Cc1ccc(NS(=O)(=O)c2ccc3c(c2)CCC(=O)N3)cc1C
inconclusive: [1] 8.2 µM [inhibitor, partial curve] | [2] 29.1 µM [inhibitor, single point] | [3] 18.4 µM [inhibitor, single point] | [4] 29.1 µM [inhibitor, single point]

CC(C)n1cnc2c(NCc3ccccc3)nc(NCCCO)nc21
inconclusive: [1] 29.1 µM [inhibitor, single point] | [2] 23.1 µM [inhibitor, single point] | [3] 23.1 µM [inhibitor, single point] | [4] 23.1 µM [inhibitor, single point]

Oc1ccc2c(c1)OCC1(O)Cc3cc(O)c(O)cc3C21 (configuration not stated)
inconclusive: [1] 20.6 µM [inhibitor, single point] | [2] 25.9 µM [inhibitor, single point] | [3] 18.4 µM [inhibitor, single point] | [4] 29.1 µM [inhibitor, single point]
